“And” between values parts separate entries of the source, which are not always exact repeats. Equal entries are not always repeated. ± gives the standard deviation of the averaged measurements. This is one part of the list. Most values come without repeats; read them as rough.
The compounds below were run on mouse mesenchymal chondrosarcoma cells (HEY1-NCOA2) (assay: XTT absorbance relative to DMSO control (cell viability) (fraction of DMSO control); higher = more viable cells / less growth inhibition).
Work on `Cc1sc2c(c1C)C(c1ccc(Cl)cc1)=N[C@@H](CC(=O)OC(C)(C)C)c1nnc(C)n1-2` yielded an XTT absorbance of 0.605. Work on `CC1=C2C[C@H]3[C@@H](CC=C4C[C@@H](O)CC[C@@]43C)[C@@H]2CC[C@]12O[C@@H]1C[C@H](C)CN[C@H]1[C@H]2C` [cyclopamine] yielded an XTT absorbance of 1.02. `C[C@@]1(CO)[C@H](O)CC[C@@]2(C)[C@H]1CC[C@H]1C[C@@H]3C[C@@]12CC[C@]3(O)CO` [Aphidicolin] was tested, and the XTT absorbance was 0.431. Work on `C/C(O)=C(\C#N)C(=O)Nc1cc(Br)ccc1Br` yielded an XTT absorbance of 0.983 ± 0.015. `C=C1[C@@H](C)[C@H]2[C@H](Cc3ccccc3)NC(=O)[C@]23[C@H](OC(C)=O)/C=C/[C@@](C)(O)C(=O)[C@@H](C)C/C=C/[C@H]3[C@@H]1O` [Cytochalasin D] showed an XTT absorbance of 0.436. In the case of `CC[C@@]1([C@@H]2O[C@@H]([C@H]3O[C@@](O)(CO)[C@H](C)C[C@@H]3C)C[C@@H]2C)CC[C@H]([C@]2(C)CC[C@]3(C[C@H](O)[C@@H](C)[C@@H]([C@@H](C)[C@@H](OC)[C@H](C)C(=O)O)O3)O2)O1` [Monensin], the XTT absorbance is reported as 0.362. Work on `C[C@@H]1O[C@@H](O[C@H]2C[C@@H](O)[C@]3(CO)[C@H]4[C@H](O)C[C@]5(C)[C@@H](C6=CC(=O)OC6)CC[C@]5(O)[C@@H]4CC[C@]3(O)C2)[C@H](O)[C@H](O)[C@H]1O` [Ouabain] yielded an XTT absorbance of 0.929. `CC(C)(c1ccc(OCC2CO2)cc1)c1ccc(OCC2CO2)cc1` (centres undefined) gave an XTT absorbance of 0.939. `O=C1NC(=O)c2c1c1c3ccccc3n3c1c1c2c2ccccc2n1[C@H]1CC[C@@H]3O1` was tested, and the XTT absorbance was 0.914 and 0.93.
